Data reported in PubChem BioAssay AID743279 (National Center for Advancing Translational Sciences (NCATS), 2014).
The campaign covered roughly 360,000 compounds. About 17,000 (4.7%) were called active. The shares of active, inactive and inconclusive entries below differ from those in the screen. Rule as the data show it: active = activity change below about -50%; inconclusive = mostly about -30% to -49%; inactive = weaker than that.
% is scaled to controls: 0 for no effect and ±100 for the full control effect.

Assay: qHTS for Inhibitors of Inflammasome Signaling: IL-1-beta AlphaLISA Primary Screen
Conditions: THP-1 LPS/ATP IL-1B secretion, 16 h; at 57.5 µM, active compounds read low
In short: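 Secreted IL-1B measured by AlphaLISA bead assay after 16 h compound exposure of THP-1 cells; compounds (final up to 57.5 uM) added 1 h before LPS (250 ng/mL) and ATP (1.25 mM) stimulation; lower signal means less secretion.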
In the case of CCOC(=O)COc1ccc2c3c(c(=O)oc2c1C)CCC3, the activity change is reported as inactive: 6.64%. With CC(C)(C)c1cc(Br)c(O)c(N=Nc2ccc(S(=O)(=O)N3CCOCC3)cc2)c1 the activity change was inconclusive: -35.8%. In the case of COc1cccc(NC(=O)CN(C)C(=O)C23CC4CC(CC(Cl)(C4)C2)C3)c1, the activity change is reported as inconclusive: -31.7%. For COc1ccc2c3c(cccc13)C(=O)CC2, the activity change was inconclusive: -45.2%. In the case of O=c1cc(CN2CCN(C/C=C/c3ccccc3)CC2)c2cc(O)c(-c3ccccc3)cc2o1, the activity change is reported as inconclusive: -34.2%. In the case of COc1ccc(-c2cc(C3CCN(c4cc(Cl)nc(N)n4)CC3)[nH]n2)cc1, the activity change is reported as inconclusive: -49.4%. In the case of CN(C)S(=O)(=O)N(CC(=O)Nc1ccccc1F)c1ccccc1, the activity change is reported as inconclusive: -30.3%. For Cc1cc(C)c2oc(-c3ccc(C)c(NC(=S)NC(=O)/C=C/c4ccco4)c3)nc2c1, the activity change was inactive: 13.5%. In the case of COc1ccc(-c2sc3ccc(OC)cc3c2C#Cc2cncn2C)cc1, the activity change is reported as inconclusive: -31.1%. For CCCCN(C)C(=O)CSc1nc(NCc2ccc(OC)cc2)c2ccccc2n1, the activity change was inconclusive: -41.6%. In the case of CCN(CC)CCNC(=O)c1cc2c(-c3cccc(OC)c3)nn(C)c2s1, the activity change is reported as active: -79.5%. In the case of CSCCC1NC(=O)N(CC(=O)Nc2ccc(Br)cc2Br)C1=O (stereo not drawn), the activity change is reported as inconclusive: -40.1%. With CCc1cc2c(=O)n(-c3ccc(Br)cc3)cnc2s1 the activity change was inconclusive: -36.3%. With CN(C)/C=C/C(=O)c1cccc(Cl)c1 the activity change was inconclusive: -30%. With CC(C)(C)c1ccc(NC(=O)NCc2ccco2)cc1 the activity change was inconclusive: -32.3%. With O=C(N/C(=C/c1cccs1)C(=O)N1CCOCC1)c1cccs1 the activity change was inactive: 15%. With CCOc1cc(NC(=S)NCC2CCCO2)c(OCC)cc1NC(=O)c1cccc(C)c1 (stereo not drawn) the activity change was inconclusive: -40.8%. For COc1cc2c(cc1OC)C(c1ccccc1)N(C(=O)c1ccco1)CC2 (stereo not drawn), the activity change was inactive: -22.8%. In the case of CCOC(=O)C1(CCCc2ccccc2)CCN(C(=O)c2n[nH]c(CC)c2C)CC1, the activity change is reported as inconclusive: -32.1%. For CCC(C)NCCCCOc1ccc(Cl)cc1C (stereo not drawn), the activity change was inconclusive: -39%. With O=C(/C(=C(\O)c1ccccc1)c1nc2ccccc2[nH]1)c1ccccc1 the activity change was inconclusive: -34.5%. With COc1ccc(-c2onc(C)c2-c2ccc(C(=O)OC(C)C)o2)c(O)c1 the activity change was inconclusive: -34.3%. In the case of CCCCNC(=O)Nc1nc2ccc(CC)cc2s1, the activity change is reported as inconclusive: -40.5%. For O=C(CSc1nnc(-c2cccs2)n1-c1ccccc1)NCc1ccc2c(c1)OCO2, the activity change was inconclusive: -32.2%. For Cc1cc(C)c2cc(C)c(SCC(=O)NCc3ccco3)nc2c1, the activity change was inconclusive: -33.5%. For O=C(Nc1ccc(-n2cnnn2)cc1)c1cn2ccccc2n1, the activity change was inactive: -5.55%. With Oc1ccccc1-c1nc(NCC2CCCO2)c2ccccc2n1 (stereo not drawn) the activity change was inconclusive: -36.4%. With CC(=O)Nc1ccc(NC(=O)CN2C(=O)COc3ccc(S(=O)(=O)N4CCCCC4)cc32)cc1 the activity change was inconclusive: -35.5%. In the case of Cn1c(=O)c2[nH]c(CSCc3ccccc3)nc2n(C)c1=O, the activity change is reported as inactive: 0%. In the case of CCN(CC)c1ccc(C(=C2C=CC(=[N+](CC)CC)C=C2)c2ccc(N(CC)CC)cc2)cc1, the activity change is reported as inconclusive: -46.3%. For CN1C2C=CC(=O)C1C1C(=O)N(c3ccccc3)C(=O)C12 (stereo not drawn), the activity change was active: -118%. With Cc1cccc(C)c1Nc1ncnc(N)c1[N+](=O)[O-] the activity change was inactive: 31.6%. For O=C(COC(=O)c1cccc(O)c1)Nc1ccc(S(=O)(=O)N2CCOCC2)cc1, the activity change was inconclusive: -36.7%. In the case of O=C(Nc1cccc(OC(=O)c2ccc(Br)o2)c1)c1ccccc1, the activity change is reported as inactive: -13.6%. In the case of CCN(CC)c1ccc(-c2nn3c(-c4cccnc4)nnc3s2)cc1, the activity change is reported as inactive: -6.35%. For C/C(=N\NC(=O)c1ccco1)c1ccc(NC(=O)c2cccs2)cc1, the activity change was inactive: -19.7%. For O=C(c1cc(Cl)cc(Cl)c1)N1CCC(=O)N([C@H](COCc2ccccc2)Cc2ccccc2)CC1, the activity change was inconclusive: -32.9%. With CC1CCN(c2nc3ccc(C(=O)NCCCN4CCCCC4)cc3s2)CC1 the activity change was inactive: -20%. With CC(C)C(=O)Nc1cccc(NC(=S)NC(=O)c2ccc3c(c2)OCO3)c1 the activity change was “inactive”. For N#CC1(CCCN2CCCCC2)c2ccccc2CCc2ccccc21, the activity change was active: -57.1%. With CC1(C(=O)N2CCC(CC3CC(c4cccc(Br)c4)=NO3)(C(=O)NCC3CCCCC3)CC2)CC1 (stereo not drawn) the activity change was inconclusive: -37.8%. In the case of Cn1c(=O)c2[nH]c(CN3CCCCC3)nc2n(C)c1=O, the activity change is reported as inactive: 21.8%. For CN1CCN(c2c([N+](=O)[O-])cnc3ccccc23)CC1, the activity change was inactive: 10.1%. For CCN(CC)C(=O)c1sc2nc(-c3ccccc3)ccc2c1N, the activity change was active: -57.4%. For O=C(Nc1ccc([N+](=O)[O-])cc1)Nc1cnccn1, the activity change was inconclusive: -36.4%. With CC1=NOC(=O)/C1=C\c1ccc(-c2ccc(Cl)c(C(=O)O)c2)o1 the activity change was inactive: 18.3%. With Cc1ccc(C(=O)N2CCN(c3ncnc4c(C)csc34)CC2)cc1 the activity change was inconclusive: -37%. With Cc1[nH]c(=S)sc1Cc1ccc(F)cc1 the activity change was inactive: 44.2%. With O=C(NCc1cccs1)c1cccc2c(-c3cccnc3)coc12 the activity change was inconclusive: -34.9%. For CC1CC2C3CCC4=CC(=O)C=CC4(C)[C@@]3(Cl)C(O)CC2(C)C1(O)C(=O)CO (stereo partly drawn), the activity change was inactive: -24.8%. In the case of CC(C)N(C(=O)[C@H]1CC(CC(=O)NCc2cccc(C(F)(F)F)c2)C(=O)N2CCc3c([nH]c4ccccc34)[C@]12C)C(C)C (stereo partly drawn), the activity change is reported as inconclusive: -49.4%. In the case of COc1ccc(C(CCN(Cc2ccc(OC)c(OC)c2)C(C)=O)C(C)C)cc1 (stereo not drawn), the activity change is reported as inactive: 6.66%. For COc1cccc(NC(=S)N2CCC(C(=O)c3ccc(F)cc3)CC2)c1, the activity change was inconclusive: -47.4%. With COc1ccc(-c2n(CC(=O)OC3CC(C)CCC3C(C)C)c3ccccc3[n+]2C)cc1 (stereo not drawn) the activity change was active: -201%. In the case of COc1ccc(C(=O)NC(=S)Nc2ccc(CN3CCOCC3)cc2)cc1OC, the activity change is reported as inconclusive: -34.2%. With CC1CCN(CCOc2cccc(Br)c2)CC1 the activity change was inactive: -6.12%. For Cc1ccc(C(=O)Nc2cccc(-c3cn4ccccc4n3)c2)cc1, the activity change was active: -51.6%. With C=CCOc1ccccc1CN(CCc1ccccc1)C(=O)c1cccc(S(C)(=O)=O)c1 the activity change was inconclusive: -46%. For O=[N+]([O-])c1ncccc1OCc1ccc(Cl)c(Cl)c1, the activity change was inconclusive: -30.6%. In the case of CCCCOc1ccc(C(=O)NNC(=O)c2cnccn2)cc1OC, the activity change is reported as active: -73.3%. In the case of O=[N+]([O-])c1cc(S(=O)(=O)NCCN2CCOCC2)ccc1Sc1nnnn1-c1ccccc1, the activity change is reported as active: -99.8%. For O=C(/C=C/c1cnc2ccccc2n1)NC12CC3CC(CC(C3)C1)C2, the activity change was inconclusive: -41.2%. For CN(C)CCN(C(=O)C1CCCCC1)c1nc2cc3c(cc2s1)OCCO3, the activity change was inconclusive: -39.3%. In the case of Cn1cc(CNCc2ccccc2OCC(O)CN2CCc3ccccc3C2)cn1 (stereo not drawn), the activity change is reported as inconclusive: -31.9%. In the case of CCN(CC)CCC(c1cc(OC)c(OC)c(OC)c1)c1c(OC)cc(OC)c2c(-c3ccccc3)cc(=O)oc12 (stereo not drawn), the activity change is reported as inconclusive: -45.2%. In the case of Cc1cccc(Nc2nc3ccccc3s2)c1C, the activity change is reported as inconclusive: -31%. For COc1ccc(CCNCC(C)c2ccccc2)cc1 (stereo not drawn), the activity change was inactive: -6.7%. In the case of Cc1c(C#N)c(O)n(CCO)c(=O)c1N=Nc1ccc2c(c1)COC2=O, the activity change is reported as active: -57.4%. For Cc1cc(C)cc(-n2c(C)cc(/C=N/NC(=O)c3cccc([N+](=O)[O-])c3C)c2C)c1, the activity change was inactive: -8.72%. With C(#Cc1ccccc1)C[N+]1(CC#Cc2ccccc2)CCCC1 the activity change was inconclusive: -47%. For COC(=O)C(=Cc1ccc(OCc2ccc([N+](=O)[O-])cc2)c(OC)c1)C(=O)OC, the activity change was active: -91.8%. For CCOc1c(Br)cc(CNc2ccc(N3CCN(C(C)=O)CC3)cc2)cc1OC, the activity change was inconclusive: -35.4%. For O=c1cc(CSc2ccccc2)[nH]c2ccccc12, the activity change was inactive: 14.8%. In the case of COc1ccc(NC(C)C(=O)Nc2cccc(S(=O)(=O)N3CCOCC3)c2)cc1OC (stereo not drawn), the activity change is reported as inconclusive: -43%. For Cc1ccc(S(=O)(=O)N2N=C3CCCCC3C2(O)C(F)(F)F)cc1 (stereo not drawn), the activity change was inconclusive: -41.8%. In the case of COc1ccc2nc(C)cc(N3CCOCC3)c2c1, the activity change is reported as inactive: 12.6%. In the case of Cc1ncc(CO)c2c1Oc1nc(-c3ccccc3)nc(SCC(=O)N3CCCCC3)c1C2, the activity change is reported as inconclusive: -47.5%. In the case of COC(=O)c1ccccc1NC(=O)Cn1cnc2ccc(S(=O)(=O)N3CCC(C)CC3)cc2c1=O, the activity change is reported as inactive: 9.42%. For CCCCOCCCNC(=O)C[C@@H]1C[C@@]2(C(=O)OC)CC(C)(C)CC=C2N(Cc2ccccc2)C1=O, the activity change was inconclusive: -39.7%. In the case of CCN1CCN(C(=S)c2ccc(SC)cc2)CC1, the activity change is reported as inconclusive: -33.1%. For Cc1cccc(-n2c(C)nc3c(cnn3-c3ccc(F)cc3)c2=O)c1, the activity change was inconclusive: -35.2%. With CC(=O)c1ccc(NC(=O)CN2CCN(S(=O)(=O)c3ccc4c(c3)OCCO4)CC2)cc1 the activity change was inactive: 5.4%. With O=C(/C=C/c1ccccc1Cl)N(Cc1ccccc1)C1CCS(=O)(=O)C1 (stereo not drawn) the activity change was inconclusive: -44.7%. For N#CC1=C(N)Oc2cc(O)ccc2C1c1ccc(Br)s1 (stereo not drawn), the activity change was inactive: 8.34%. In the case of C=CCNc1nc(NCc2ccccc2)c(C#N)c2c1CN(C)CC2, the activity change is reported as inconclusive: -47.9%. For O=C(c1ccc(S(=O)(=O)N2CCCCC2)cc1)N1CCN(c2ccccc2F)CC1, the activity change was inconclusive: -30.8%. For Cc1ccc2c(c1)N(CC(=O)N1CCCCCC1)C(=O)CO2, the activity change was inconclusive: -38.7%. For COc1ccc(N(C)S(=O)(=O)c2cccc(C(=O)NCc3ccc4c(c3)OCO4)c2)cc1, the activity change was inconclusive: -48.9%.
